From PubChem BioAssay AID463173 (ICCB-Longwood Screening Facility, Harvard Medical School, 2010)
Hit rate of the full screen: of about 52,000 compounds, about 1,700 (3.3%) were called active. Cut-off read from the data, not from the text of the source: active = survival mostly below about 52% (no sharp cut-off); inactive = mostly above about 56%. This is one part of the list.

tested on: Wild type; assay: S. aureus survival, RN4220 and DeltatarO strains – OD600, teichoic acid synthesis inhibitors, primary screen (AID 463173); settings: S. aureus RN4220 wild type/DeltatarO growth, OD600, 18 h, stronger effect = lower value, screened at 18.75 µg/mL (by protocol)

Question: With O=C(CSc1nc(-c2ccc(F)cc2)[nH]c1-c1ccc(F)cc1)Nc1ccc2c(c1)OCO2 as the compound, how does the survival read?
Answer: inactive: 120%

Question: For COc1ccc(-c2cc(C(F)(F)F)nc(SCC(=O)NCC(C)C)n2)cc1OC, which survival is on record?
Answer: inactive: 139%

Question: Cc1ccc(CNC(=O)c2ccc(CS(=O)Cc3cccc(Cl)c3)o2)cc1 (stereo not drawn) was tested. Which survival did it give?
Answer: inactive: 80%

Question: For Cc1ccn2c(=O)cc(COc3cccc(NC(=O)Nc4cccc(Cl)c4C)c3)nc2c1, which survival is on record?
Answer: inactive: 76%

Question: COc1ccccc1NC(=O)C1=C(C)Nc2nc3ccccc3n2C1c1cccc(OC)c1OC (stereo not drawn) was tested. Which survival did it give?
Answer: inactive: 68%

Question: With CCN1CCN(C(=O)C2CCN(Cc3cc(Cl)ccc3O)CC2)CC1 as the compound, how does the survival read?
Answer: inactive: 107%

Question: O=S(=O)(c1cccc2ccccc12)N1CCN(c2ccc(Cl)c(Cl)c2)CC1 was tested. Which survival did it give?
Answer: inactive: 145%

Question: With COc1ccc(NC(C)=O)cc1NC(=O)CN1CCN(c2ccc(F)cc2)CC1 as the compound, how does the survival read?
Answer: inactive: 72%

Question: With CCOc1cc(C(=O)NCC(c2ccc(N(C)C)cc2)N2CCOCC2)cc(OCC)c1OCC (stereo not drawn) as the compound, how does the survival read?
Answer: inactive: 78%

Question: Which survival does the source give for Cc1cc(Nc2cccc(C(F)(F)F)c2)nc2ccc(NC(=O)c3cccc(Cl)c3)cc12 here?
Answer: inactive: 90%

Question: O=C(NCCCN1CCOCC1)c1ccc2c(c1)N(Cc1cccc(Cl)c1)C(=O)c1ccccc1S2 was tested. Which survival did it give?
Answer: inactive: 69%

Question: Which survival does the source give for O=C(Cn1cc(S(=O)(=O)c2ccccc2)c(=O)c2cc(Cl)ccc21)Nc1ccc2c(c1)OCO2 here?
Answer: inactive: 79%

Question: How did the survival turn out when CCOc1ccc(CNCc2c(C(=O)O)c(C)n(Cc3c(F)cccc3Cl)c2C)cc1OC was run?
Answer: inactive: 82%

Question: For CCCCN(CCCNC(=O)c1cc(Nc2ccc(OC)c(OC)c2)nc2ccccc12)c1ccccc1, which survival is on record?
Answer: inactive: 83%

Question: With Cc1ccc(-c2cn3c(n2)sc2cc(C(=O)NCCCc4ccccc4)ccc23)c(C)c1 as the compound, how does the survival read?
Answer: inactive: 72%

Question: With CC(C)c1ccc(S(=O)(=O)N2CCC(N3CCN(Cc4ccccc4)C(=O)C3=O)CC2)cc1 as the compound, how does the survival read?
Answer: inactive: 65%

Question: For C#CC1(OC(C)=O)C(C)CN(C)CC1C (stereo not drawn), which survival is on record?
Answer: inactive: 104%

Question: For Cc1ccccc1Nc1c(-c2cccnc2)nc2ccc(Cl)cn12, which survival is on record?
Answer: inactive: 81%

Question: With COc1ccc(C2=C(Nc3ccc(C)cc3C)c3ccccc3C2=O)cc1 as the compound, how does the survival read?
Answer: inactive: 76%

Question: How did the survival turn out when CCc1nn2c(=O)c(S(=O)(=O)Nc3ccc(Cl)cc3)c(C)nc2s1 was run?
Answer: inactive: 107%

Question: With Cc1ccc2oc(=O)n(CCCOc3ccccc3Cl)c2c1 as the compound, how does the survival read?
Answer: active: -10%

Question: For Cc1cc(C)c(S(=O)(=O)NCC(c2ccc(N(C)C)cc2)N2CCOCC2)c(C)c1 (stereo not drawn), which survival is on record?
Answer: inactive: 73%

Question: COc1ccccc1-c1noc(-c2ccc(NCC3CCCO3)c([N+](=O)[O-])c2)n1 (stereo not drawn) was tested. Which survival did it give?
Answer: inactive: 103%

Question: For O=C(NCc1cccnc1)c1cn(Cc2ccccc2)nn1, which survival is on record?
Answer: inactive: 98%

Question: How did the survival turn out when CCc1cccc(NC(=O)CN(C)S(=O)(=O)c2ccc3c(c2)CCCN3C(C)=O)c1 was run?
Answer: inactive: 83%

Question: With CC(CCc1ccccc1)NC(=O)Cn1c(=O)nc(-c2ccccc2)c2ccccc21 (stereo not drawn) as the compound, how does the survival read?
Answer: inactive: 125%

Question: How did the survival turn out when CCOC(=O)c1cnc2c(C)c(Cl)ccc2c1Nc1ccc(N2CCOCC2)cc1 was run?
Answer: inactive: 60%

Question: O=C(NCc1ccc(F)cc1)C1(c2cccs2)CCOCC1 was tested. Which survival did it give?
Answer: inactive: 124%

Question: Which survival does the source give for Cc1ccc(OCC(=O)Nc2nnc(S(=O)(=O)N3CCCCCC3)s2)cc1 here?
Answer: inactive: 64%

Question: With COc1cc(Nc2nc3c(S(=O)(=O)c4ccc(C)c(C)c4)nnn3c3ccsc23)cc(OC)c1 as the compound, how does the survival read?
Answer: inactive: 94%

Question: With Oc1ccc(NCc2ccccc2OCc2ccc(Cl)cc2)cc1 as the compound, how does the survival read?
Answer: inactive: 72%

Question: Which survival does the source give for CCOC(=O)c1c(NC(=O)C2c3ccccc3Oc3ccccc32)sc(C)c1CC here?
Answer: inactive: 33%

Question: How did the survival turn out when CCn1c(=O)cc(OCC(=O)N(C)c2cc(Cl)ccc2C)c2ccccc21 was run?
Answer: inactive: 62%

Question: How did the survival turn out when O=C(NCCO)c1nc2ccccc2s1 was run?
Answer: inactive: 104%

Question: How did the survival turn out when COC(=O)c1ccccc1NC(=O)N1CCC(N2CCN(Cc3ccc(F)cc3)C(=O)C2=O)CC1 was run?
Answer: inactive: 70%

Question: Which survival does the source give for CC(C)(C)C1CCc2nc(NC(=O)Cc3ccccc3)sc2C1 (stereo not drawn) here?
Answer: inactive: 62%

Question: With COc1ccc(NC(=O)CS(=O)CC(=O)NC2CCCc3ccccc32)cc1 (stereo not drawn) as the compound, how does the survival read?
Answer: inactive: 100%

Question: How did the survival turn out when O=C(c1cccs1)N(Cc1nc2sc3c(c2c(=O)[nH]1)CCCC3)C1CCCC1 was run?
Answer: inactive: 104%

Question: For COc1ccccc1N1C(=O)N(CC(=O)C(C)(C)C)c2ccccc2S1(=O)=O, which survival is on record?
Answer: inactive: 82%

Question: CSc1ccc(-c2nc3cccc(C)n3c2Nc2ccc(Cl)cc2)cc1 was tested. Which survival did it give?
Answer: inactive: 101%

Question: Which survival does the source give for CN(C)CCNC(=O)c1ccc(-c2nn(C)c(=O)c3ccccc23)cc1 here?
Answer: inactive: 125%

Question: How did the survival turn out when O=C1CN(C(=O)COc2ccc(Cl)cc2Cl)C(c2ccccc2)c2cc(F)ccc2N1 (stereo not drawn) was run?
Answer: inactive: 60%

Question: For CCOc1ccc(CCNC(=O)c2nn(C)c3c2CSc2ccccc2-3)cc1, which survival is on record?
Answer: inactive: 77%

Question: How did the survival turn out when COc1cccc(C(=O)Nc2nnc(S(=O)(=O)N3CCCC3)s2)c1 was run?
Answer: inactive: 68%

Question: With Cc1ccc(Cn2cnc3nc4c(cc3c2=O)CC(C)CC4)cc1 (stereo not drawn) as the compound, how does the survival read?
Answer: active: -3%

Question: CC(C)c1ccc(S(=O)(=O)c2cnc(SCC(=O)Nc3ccc4c(c3)OCCO4)[nH]c2=O)cc1 was tested. Which survival did it give?
Answer: inactive: 71%

Question: With O=C(O)c1ccc(NC(=O)c2cc(S(=O)(=O)N3CCCCC3)c(Cl)cc2Cl)cc1 as the compound, how does the survival read?
Answer: inactive: 136%

Question: How did the survival turn out when Cc1cccc(C(=O)NNc2ncnc3c2cnn3-c2ccc(C)cc2C)c1 was run?
Answer: inactive: 124%

Question: Which survival does the source give for CCOc1ccccc1CNC(=O)CCCn1ccc2cc(S(=O)(=O)N3CCCC3)ccc21 here?
Answer: inactive: 76%

Question: CCCNC(=O)CN1C(=O)CSc2ccc(S(=O)(=O)N3CCC(C)CC3)cc21 was tested. Which survival did it give?
Answer: inactive: 85%

Question: Which survival does the source give for Cc1ccc(Nc2c(C(C)C)c(C)c(C#N)c3nc4ccccc4n23)cc1 here?
Answer: inactive: 70%

Question: How did the survival turn out when O=C(CNCc1ccco1)Nc1ccccc1-n1cccc1 was run?
Answer: inactive: 111%

Question: Which survival does the source give for CCC(C)NC(=O)CCCc1nnc2n(CC(C)C)c(=O)c3sccc3n12 (stereo not drawn) here?
Answer: inactive: 100%

Question: For COc1ccc2c(c1)CCc1c(C(=O)Nc3c(C)nn(Cc4ccccc4)c3C)noc1-2, which survival is on record?
Answer: inactive: 92%

Question: Which survival does the source give for Cc1ccccc1-c1noc(-c2ccc(NCc3ccco3)c([N+](=O)[O-])c2)n1 here?
Answer: inactive: 82%

Question: With CCOc1ccc(NC(=O)c2cc(S(=O)(=O)NC3CCCCCC3)ccc2F)cc1 as the compound, how does the survival read?
Answer: inactive: 69%

Question: With CCOc1ccc(-n2c(=O)c3c(C)c(C)sc3n(CC(=O)NCCc3ccccc3)c2=O)cc1 as the compound, how does the survival read?
Answer: inactive: 87%

Question: How did the survival turn out when CCOc1ccccc1NC(=O)CSc1nccn1-c1cccc(C)c1 was run?
Answer: inactive: 88%

Question: Cc1ccc(NC(=O)/C=C\C(=O)N(c2ccc(C(C)C)cc2)C(C(=O)NCc2ccco2)c2ccc(F)cc2)cc1 (stereo not drawn) was tested. Which survival did it give?
Answer: inactive: 59%

Question: Which survival does the source give for COc1ccc2c(Sc3ccc(C)cc3)c(C(=O)NC(C)C)[nH]c2c1 here?
Answer: inactive: 85%

Question: With COCCCNC(=O)c1nn(-c2ccc(C)cc2)nc1CO as the compound, how does the survival read?
Answer: inactive: 86%

Question: How did the survival turn out when O=c1oc2ccccc2c(N2CCN(c3ccccc3F)CC2)c1CN1CCCC1 was run?
Answer: inactive: 82%

Question: Cc1ccc(S(=O)(=O)C(CNC(=O)C(=O)NCCc2ccccc2)c2cccs2)cc1 (stereo not drawn) was tested. Which survival did it give?
Answer: inactive: 136%

Question: How did the survival turn out when CCOc1ccc(C2CC(=O)c3c([nH]c(C(=O)OCC4CCCCC4)c3C)C2)cc1 (stereo not drawn) was run?
Answer: inactive: 81%

Question: For CCCc1cc(=O)oc2cc(C)c3c(-c4ccccc4)coc3c12, which survival is on record?
Answer: inactive: 66%

Question: For COc1cccc(NC(=O)C(Cc2ccccc2)NS(=O)(=O)c2ccc3c(c2)c(=O)n(C)c(=O)n3C)c1 (stereo not drawn), which survival is on record?
Answer: inactive: 72%

Question: For Cc1cccc(CNC(=O)Cn2ccc3cc(S(=O)(=O)N4CCCCCC4)ccc32)c1, which survival is on record?
Answer: active: -6%

Question: Cc1ccc(NC(=O)CC2Nc3ccccc3NC2=O)cc1C (stereo not drawn) was tested. Which survival did it give?
Answer: inactive: 74%

Question: Which survival does the source give for O=C(CN1C(=O)CSc2ccc(S(=O)(=O)N3CCCC3)cc21)Nc1cccc(Cl)c1 here?
Answer: inactive: 95%

Question: COc1ccc(CCNC(=O)c2ccc(Cn3c(=O)c4ccccc4n(CC(=O)C(C)(C)C)c3=O)cc2)cc1OC was tested. Which survival did it give?
Answer: inactive: 96%

Question: With COc1cc(NC(=O)CCn2nc(C)c(S(=O)(=O)N3CCCCC3)c2C)cc(OC)c1OC as the compound, how does the survival read?
Answer: inactive: 136%

Question: For Cc1ccccc1C(=O)N(Cc1sccc1C)C1CCS(=O)(=O)C1 (stereo not drawn), which survival is on record?
Answer: inactive: 87%

Question: For CC1CCCCN1CCCNC(=O)CN1C(=O)c2cccnc2Oc2ccccc21 (stereo not drawn), which survival is on record?
Answer: inactive: 119%

Question: Which survival does the source give for COc1ccc(Cl)cc1NC(=O)c1c(NCc2cccnc2)sc2c1CCC(C)C2 (stereo not drawn) here?
Answer: inactive: 74%

Question: Cc1ccc(Cl)cc1NC(=O)CCCn1c(=O)c2cccn2c2cccnc21 was tested. Which survival did it give?
Answer: inactive: 88%

Question: How did the survival turn out when COc1ccccc1NC(=O)C1=C(C)Nc2c(C(=O)Nc3cccc(C)c3)cnn2C1c1ccccc1Cl (stereo not drawn) was run?
Answer: active: -6%

Question: For C=CCN1C(=O)C2C(C(=O)NCc3ccccc3)C3C=CC2(O3)C1C(=O)NC1CCCC1 (stereo not drawn), which survival is on record?
Answer: inactive: 105%

Question: Which survival does the source give for CCN1CCN(C(c2ccc(SC)cc2)c2c(O)cc(C)n(CCOC)c2=O)CC1 (stereo not drawn) here?
Answer: inactive: 128%

Question: For CCCCN(CC)C(=O)C1CCCN(c2ncnc3onc(C)c23)C1 (stereo not drawn), which survival is on record?
Answer: inactive: 92%

Question: Which survival does the source give for COCCCNC(=O)c1ccc(Cn2c(=O)c3ccccc3n(Cc3c(C)cc(C)cc3C)c2=O)cc1 here?
Answer: inactive: 92%

Question: Which survival does the source give for CCOC(=O)c1ccc(CN(Cc2ccc(Br)cc2)S(=O)(=O)c2cccc(Cl)c2C)cc1 here?
Answer: inactive: 82%

Question: For O=c1cc(-c2ccc(F)cc2)nc(SCc2nc(-c3ccc(Cl)cc3)no2)[nH]1, which survival is on record?
Answer: inactive: 88%

Question: CCOC(=O)c1c(C)[nH]c(C)c1S(=O)(=O)NCC(=O)NCc1cccc(C)c1 was tested. Which survival did it give?
Answer: inactive: 159%

Question: With COc1cc(C(=O)NCC(c2ccc(Cl)cc2)N2CCOCC2)cc(OC)c1OC (stereo not drawn) as the compound, how does the survival read?
Answer: inactive: 79%

Question: How did the survival turn out when N#CC(C#N)=Cc1cn(CCOc2ccc3c(c2)OCO3)c2ccccc12 was run?
Answer: inactive: 105%

Question: For CCc1ccc(C2C(C(=O)Nc3ccccc3C)=C(C)Nc3nc(SCc4cccc(OC)c4)nn32)cc1 (stereo not drawn), which survival is on record?
Answer: inactive: 146%

Question: For CCOC(=O)CC(NC(=O)Cn1nnc(-c2ccccc2F)n1)c1ccccc1Cl (stereo not drawn), which survival is on record?
Answer: inactive: 89%

Question: Which survival does the source give for CCS(=O)(=O)c1ncc(N(Cc2ccco2)Cc2ccccc2F)c(C(=O)Nc2cccc(Cl)c2)n1 here?
Answer: inactive: 84%
